Results reported in PubChem BioAssay AID2546 (National Center for Advancing Translational Sciences (NCATS), 2010).
Hit rate of the full screen: of about 310,000 compounds, about 11,000 (3.5%) were called active. This list was built around the results that the source calls inconclusive (neither active nor inactive); the mix of calls is not that of the screen. The call rests on the fitted dose curve; in most records, active means well fitted inhibition curve with a large enough effect; inconclusive means small, poorly fitted or top-dose-only effect, or effect the other way; inactive means flat fitted curve, though single readings scatter. Potencies of inconclusive entries are left out as doubtful fits.

Assay: VP16 counterscreen qHTS for inhibitors of ROR gamma transcriptional activity;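 further: Gal4-VP16 expression switched on by copper sulfate through the metallothionein promoter; nearly all actives have a fitted effect of over 50% in size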
Conditions: Drosophila S2 Gal4-VP16 UAS-luciferase, luminescence, 20 h; activity, negative = inhibition: at 53.6 µM (top of the series)
On the % scale 0 is the no-effect control and ±100 the full control effect; potency means the concentration at half of the fitted maximal effect; tags describe the fitted curve by direction and shape.

Structure (SMILES)	Potency	activity, negative = inhibition
C=CCn1c(-c2cc(OC)cc(OC)c2)n[nH]c1=S	inconclusive [inhibitor, single point]	
O=C(NC(=S)NCc1ccco1)c1ccc(Br)cc1	active: 15.8 µM	
O=C(/C=C/c1ccc([N+](=O)[O-])o1)NNC(=O)c1ccc(F)cc1	active: 4.47 µM	
Cc1nn(-c2cccc(Cl)c2)c2nc(-c3ccncc3)cc(C(=O)N3CCOCC3)c12	inconclusive [inhibitor, single point]	
CC1(C)Cc2c(sc3nc(-c4cccs4)n(N)c(=O)c23)CO1	active: 15.8 µM	
CCOc1c2ccc(C(=O)NCc3cc(C(F)(F)F)cc(C(F)(F)F)c3)cc2nn1C	inconclusive [inhibitor, single point]	
O=C(Nc1ccccc1C(=O)N/N=C/c1ccco1)c1ccccc1	inconclusive [inhibitor, single point]	
COc1cc(/C=N/NC(=S)N/N=C/c2cc(OC)c(OC)c(OC)c2)cc(OC)c1OC	active: 3.98 µM	
O=C(Nc1cccc(Cl)c1)c1cc(N=Nc2ccc([N+](=O)[O-])cc2Cl)ccc1O	inconclusive [inhibitor, full curve, poor fit]	
Cc1c(C(=O)Oc2cccc3cccnc23)oc2ccccc12	active: 6.31 µM	
COc1ccccc1-c1nc(-c2cccc(C)c2)no1	active: 22.4 µM	
CC(=O)C(=Cc1cc(C)n(-c2ccccc2)c1C)C(C)=O		inactive: 41.9%
Cn1c(N)c(S(=O)(=O)c2ccc(Br)cc2)c2nc3ccccc3nc21	inconclusive [inhibitor, single point]	
CN(C)CCNC(=O)c1csc(Nc2cccc3ccccc23)n1	inconclusive [inhibitor, single point]	
C=CCN(Cc1nc(-c2ccccc2)no1)C(=O)c1ccc2c(c1)OCO2		inactive: 2.66%
CCOC(=O)c1cc(S(=O)(=O)NCC2CCN(Cc3cccc(C)c3)CC2)cn1C		inactive: 3.89%
O=C(CSc1nnc(-c2ccco2)o1)c1ccccc1Cl	inconclusive [inhibitor, full curve, poor fit]	
CCOC(=O)c1cccc(Nc2nc(C)cc(C)n2)c1		inactive: 24.1%
CN(C)c1ccc(NC(=S)N2CCN(c3ncc(C(F)(F)F)cc3Cl)CC2)cc1	inconclusive [inhibitor, partial curve, poor fit]	
O=C(NCCc1ccccc1)c1ccc2c(c1)OCCCO2	active: 0.631 µM	
COc1ccc(/C=C/c2nc(-c3ccccc3O)n[nH]2)cc1OC	inconclusive [inhibitor, single point]	
COc1cc(OC)nc(NC(=O)C(C)C)n1	inconclusive [inhibitor, single point]	
Cc1c(NC(=O)CSc2nc3c(cnn3-c3ccccc3)c(=O)[nH]2)c(=O)n(-c2ccccc2)n1C	inconclusive [activator, single point]	
Cc1ccc(S(=O)(=O)N(C(=O)c2ccco2)c2cc3sc(=O)oc3c3ccccc23)cc1	inconclusive [inhibitor, single point]	
CCN(CC)S(=O)(=O)c1ccc2oc(Nc3ccccc3)nc2c1	inconclusive [activator, partial curve]	

Structure (SMILES)	Potency	activity, negative = inhibition
CCOc1ccc(N(CC(=O)Nc2ccc(Br)cc2)S(C)(=O)=O)cc1	inconclusive [activator, partial curve]	
COc1cc(/C=N/NC(=O)CN2CCCCC2)ccc1OCc1ccccc1		inactive: -6%
CC(Nc1nc(N2CCCCC2)nc2ccccc12)c1ccccc1 (centres undefined)		inactive: -26.4%
O=C(N/C(=C/c1ccco1)C(=O)N1CCCC1)c1cccs1	inconclusive [inhibitor, single point]	
S=c1[nH]nc(Cc2cccs2)n1-c1ccccc1	inconclusive [inhibitor, single point]	
Cn1c2c(c(=O)n(C)c1=O)C(C(F)(F)F)(C(F)(F)F)N=C(CCC1CCCCC1)N2	inconclusive [inhibitor, single point]	
COCCC(=O)N1CCC(Oc2ccc(C(=O)NCCC3=CCCCC3)cc2)CC1		inactive: -5.73%
O=C(N/N=C/c1cn(-c2ccccc2)nc1-c1cccs1)c1ccccc1F	active: 6.31 µM	
COc1ccccc1C(=O)NCC(=O)N/N=C/c1cc(Br)ccc1OCc1ccccc1		inactive: -8.78%
Cc1ccc(NC(=O)Cc2c(O)c3ccccc3[nH]c2=O)c(C)c1	inconclusive [activator, full curve]	
O=[N+]([O-])c1ccc(C2Oc3ccccc3C3CC(c4ccccc4)=NN32)s1 (centres undefined)	inconclusive [inhibitor, single point]	
COc1ccc(S(=O)(=O)N=Nc2c(O)[nH]c3ccccc23)cc1		inactive: 3.01%
O=[N+]([O-])c1ccc(O)c(/C=N/NC2=NS(=O)(=O)c3ccccc32)c1	active: 1.26 µM	
COc1ccc(-c2cn3cccc(C)c3n2)cc1Br		inactive: -8.06%
COc1ccccc1-c1c(C(F)(F)F)oc2cc(OS(C)(=O)=O)ccc2c1=O	inconclusive [inhibitor, single point]	
O=[N+]([O-])c1c(NCCCO)cc(N2CCN(Cc3ccc4c(c3)OCO4)CC2)c2nonc12	active: 3.55 µM	
Cc1ccccc1N1CCN(C2CCCN(C(=O)c3cn4c(C)cccc4n3)C2)CC1 (centres undefined)		inactive: 2.74%
Cc1nc2cnc(N3CCNCC3)nc2n(-c2ccccc2)c1=O		inactive: 7.96%
C/C(CCC(C)C)=N\Nc1ccc(S(N)(=O)=O)cc1[N+](=O)[O-]	inconclusive [inhibitor, single point]	
COc1cc2cc(CN(Cc3cccnc3)C(=O)Nc3ccccc3F)c(=O)[nH]c2cc1OC		inactive: 8.86%
CCN1CCN(C(=O)c2ccc(Cn3c(=O)[nH]c4cc(OC)c(OC)cc4c3=O)cc2)CC1		inactive: -7.26%
C[C@H](NC(=O)OC(C)(C)C)c1nnc(SCC(=O)c2ccc(Cl)cc2)o1		inactive: -28.6%
CCCc1ccc(OCc2ccc(C(=O)N3CCCC3)o2)cc1		inactive: -25.4%
O=C(CSc1cn[nH]n1)Nc1nc2ccccc2s1	inconclusive [activator, partial curve]	
CCOC(=O)C1CCN(C(=S)Nc2cccc(C)c2)CC1	inconclusive [inhibitor, partial curve]	

Structure (SMILES)	Potency	activity, negative = inhibition
COc1ccccc1-c1noc(CCCC(=O)N2CCOCC2)n1		inactive: 4.36%
COC(=O)CCC(=O)Nc1ccc2oc3c(c2c1)CCCC3		inactive: 0.884%
O=C(NC1CCCCC1)N1CCC(c2nc(-c3ccc(S(=O)(=O)N4CCCC4)cc3)no2)CC1	inconclusive [inhibitor, single point]	
CCc1ccc(C(=O)N/N=C/c2cccc3ccccc23)nc1	inconclusive [inhibitor, single point]	
COC(=O)c1ccc(NC(=O)CCCCCn2nnc3ccccc3c2=O)cc1		inactive: -4.39%
O=C(NC(=S)Nc1c(Cl)ccc2nsnc12)c1ccco1	inconclusive [inhibitor, single point]	
COC(=O)/C=C1/S/C(=N/NC(=O)c2ccccc2C)NC1=O	inconclusive [inhibitor, single point]	
OCCN1CCN(c2nc(-c3ccccc3)c3cc(Br)ccc3n2)CC1	inconclusive [inhibitor, single point]	
COc1cc2c(cc1OC)CN(c1nc(CN3CCOCC3)nc3sc4c(c13)CCCC4)CC2	inconclusive [inhibitor, single point]	
Cc1cc(C)nc(/N=c2/ssnc2Cl)c1	inconclusive [inhibitor, single point]	
CC(C)NC(=S)N1CCN(C(c2ccccc2)c2ccccc2)CC1	inconclusive [inhibitor, single point]	
Cc1ccc2nc(-c3ccc(NC(=O)CCS(=O)(=O)c4ccccc4)cc3)sc2c1	active: 7.94 µM	
COc1ccc(-c2cc(C(=O)N3CCCC3)no2)cc1OC	inconclusive [activator, full curve, poor fit]	
O=C(O)CCS(=O)(=O)c1nc(-c2cccs2)cc(C(F)(F)F)n1	inconclusive [inhibitor, single point]	
CC(C)SCc1nc2ccccc2[nH]1	inconclusive [inhibitor, single point]	
c1cc2c3c(cccc3c1)C(N1CCCCC1)=N2		inactive: -0.297%
Cc1ccc(NC(=S)NCCCN2CCOCC2)cc1C		inactive: -94.5%
CCOc1ccccc1NC(=S)N(CCCN1CCOCC1)Cc1cn(C)c2ccccc12	inconclusive [inhibitor, single point]	
COc1cc(C2c3cc4c(cc3C(O[C@@H]3OC5COC(c6cccs6)OC5C(O)C3O)C3COC(=O)C23)OCO4)cc(OC)c1O (some centres undefined)	inconclusive [inhibitor, partial curve]	
CC(=O)Oc1ccc(C(=O)Cc2ccccn2)c(O)c1	inconclusive [activator, single point]	
CCN(CC)C(=O)CSc1nc2cc3c(cc2c(=O)n1CCCC(=O)NCc1ccc(OC)cc1)OCO3		inactive: -21.2%
C=CCNC(=S)NNC(=O)c1ccc([N+](=O)[O-])cc1	inconclusive [activator, single point]	
Oc1ccccc1C1CC(c2cccs2)=NC(c2cccc(Br)c2)N1 (centres undefined)	inconclusive [inhibitor, single point]	
COc1ccc(C(=O)O/N=C(\N)c2ccccc2)cc1	inconclusive [inhibitor, partial curve]	
